From PubChem BioAssay AID588855 (National Center for Advancing Translational Sciences (NCATS), 2011)
Several values for one entry are separate records, joined by “and”; a condition that tells them apart may be missing. Equal entries are not always repeated. About 5,000 (1.2%) of roughly 410,000 compounds were called active. This list was built around the results that the source calls inconclusive (neither active nor inactive); the mix of calls is not that of the screen. Calls follow the shape of the dose curve; as a rule, active = well fitted inhibition curve with a large enough effect; inconclusive = small, poorly fitted or top-dose-only effect; inactive = no such curve, though single readings can be large or run the other way. Potencies of inconclusive entries are doubtful fits and often do not repeat.

assay: qHTS for Inhibitors of TGF-b; details: HepG2 CAGA-GFP TGF-b/SMAD3 reporter, GFP fluorescence, 18 h, TGF-beta stimulated, 500 pg/mL final; series mostly up to 46.1 µM; also: nearly all actives have a fitted effect of over 65% in size
Procedure, shortened: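 GFP signal (ex488/em500-530) from TGF-beta-stimulated HEPG2 CAGA-GFP cells, 500 pg/mL final, 18 h at 37 degrees C in DMEM plus 1% FBS, normalized to unstimulated and DMSO-stimulated controls.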
Potency is read from the fitted curve at half-maximal effect; tags tell the direction and shape of the fitted curve.

Row | SMILES | Potency
1 | Cc1ccccc1OCCC(=O)Nc1cc(S(=O)(=O)N2CCCCC2)ccc1N1CCN(C)CC1 | inconclusive: 35.5 µM [inhibitor, single point]
2 | CC(=O)N(C)c1ccc(NC(=O)c2ccccc2C(=O)O)cc1 | inconclusive: 35.5 µM [inhibitor, single point]
3 | O=C(NCc1cccc(Cl)c1)c1cnc(N2CCCCC2)c2ccccc12 | inconclusive: 25.1 µM [inhibitor, partial curve, poor fit]
4 | c1ccc(OCc2nnc3sc(-c4cccs4)nn23)cc1 | inconclusive: 35.5 µM [inhibitor, single point]
5 | CCOc1cc(CNCCSc2nnnn2C)ccc1OCc1ccc(Cl)cc1Cl | inconclusive: 35.5 µM [inhibitor, single point]
6 | CCCCn1c(=O)[nH]c(=O)c2c1nc(-c1ccccc1F)n2Cc1ccccc1OC | inconclusive: 17.8 µM [inhibitor, single point]
7 | Cc1cn([C@H]2C[C@H](O)[C@@H](/C=C/C(=O)NCc3ccccc3)O2)c(=O)[nH]c1=O | inconclusive: 11.2 µM [inhibitor, partial curve, poor fit]
8 | Cc1ccc(S(=O)(=O)/N=C(/Nc2ccc([N+](=O)[O-])cc2[N+](=O)[O-])c2ccccc2)cc1 | inconclusive: 15.8 µM [inhibitor, single point]
9 | CC(NC(=O)c1ccco1)C(=O)N1CCN(c2cccc(C(F)(F)F)c2)CC1 (centres undefined) | inactive
10 | O=C(NC(Cc1ccccc1)C(=O)O)c1cccnc1Cl (centres undefined) | inactive
11 | Cc1cc([N+](=O)[O-])nn1CC(=O)Nc1ccc(F)cc1 | inconclusive: 35.5 µM [inhibitor, single point]
12 | COc1ccc(NC(=O)Nc2cccc3c2O[C@@H](CN(C)CC2CCCCC2)[C@@H](C)CN([C@H](C)CO)C3=O)cc1 | inactive
13 | C[C@H](NC(=O)c1ncn(Cc2ccccc2)c1C(=O)N[C@@H](C)c1ccccc1)c1ccccc1 | inactive
14 | Fc1ccccc1N1CCN(CC2CCCCC2)CC1 | inactive
15 | CCCCNC(=O)C1(C)CCN1C(=O)Cc1cccc2ccccc12 (centres undefined) | inactive
16 | OC(c1ccc(-c2ccccc2)cc1)c1ncc(-c2ccccc2Cl)[nH]1 (centres undefined) | inconclusive: 14.1 µM [inhibitor, single point]
17 | COc1cccc(C(=O)Nc2nc3c(s2)CCCC3)c1 | inconclusive: 3.55 µM [inhibitor, single point]
18 | COc1ccc(Cl)cc1NC(=O)CN(C)C(=O)Cn1c(=O)oc2ccccc21 | inconclusive: 5.62 µM [inhibitor, single point]
19 | COc1ccc(CNC(=O)C(c2ccco2)N(C(=O)Cc2cccs2)c2cccnc2)cc1 (centres undefined) | inactive
20 | CC1CCc2c(sc(NC(=O)/C=C/c3cccs3)c2C(=O)O)C1 (centres undefined) | inactive
21 | CCN(CC)C(=O)c1nn(-c2ccccc2)c2c1C1CCC2(C)C1(C)C (centres undefined) | inconclusive: 7.94 µM [inhibitor, partial curve]
22 | Cc1cccc(Nc2nnc(SCC(=O)NCc3cccs3)s2)c1C | inactive
23 | Cc1ccc(-c2nnc(Nc3ccc(C(=O)N(C)C)cc3)c3ccccc23)cc1S(=O)(=O)NCC1CCCO1 (centres undefined) | inactive

Row | SMILES | Potency
24 | CN(C)/[N+]([O-])=N/Oc1cc(ON=[N+]([O-])N2CCN(c3ncccn3)CC2)c([N+](=O)[O-])cc1[N+](=O)[O-] | inconclusive: 15.8 µM [inhibitor, single point]
25 | Cc1ccccc1-c1ncc(CN2CCN(C3CCCC3)C(CCO)C2)cn1 (centres undefined) | inactive
26 | CCCN(CCC)CCNC(=O)CS(=O)Cc1nc(-c2ccc(OC)c(OC)c2)oc1C (centres undefined) | inconclusive: 6.31 µM [inhibitor, partial curve, poor fit]
27 | CCCC1=C(C(=O)OCC)C(c2cc(Cl)cc(OC)c2OCc2ccccc2)NC(=O)N1 (centres undefined) | inconclusive: 35.5 µM [inhibitor, single point]
28 | Cc1ccc(-c2nc(NCCCN(C)C)c3ccccc3n2)cc1 | inactive
29 | C[C@H](O)[C@@H]1CN2CCc3c([nH]c4ccccc34)[C@@H]2C[C@@H]1N(C)C(=O)Nc1cc(Cl)cc(Cl)c1 | inconclusive: 35.5 µM [inhibitor, single point]
30 | N=c1sccn1CC(=O)NC(c1ccccc1)c1ccccc1 | inactive
31 | COc1cc(OC)cc(C(=O)Nc2nnc(-c3cccnc3)o2)c1 | inconclusive: 6.31 µM [inhibitor, single point]
32 | COc1ccc2cc3cc(C(=O)NCc4cccnc4)oc3nc2c1 | inconclusive: 17.8 µM [inhibitor, single point]
33 | Cc1c(C(=O)NCc2ccc(F)cc2)oc2ccc(S(=O)(=O)N3CCOCC3)cc12 | inactive
34 | COC(=O)c1ccc(NC(=O)CC2C(=O)N(c3cccc(F)c3)C(=O)N2CC(C)C)cc1 (centres undefined) | inactive
35 | N#CNC(=Nc1cccc(F)c1)SCc1ccccc1 | inactive
36 | C[C@H](NC(=O)c1nc[nH]c1C(=O)NC(c1ccccc1)c1ccccc1)C(=O)OC(C)(C)C | inconclusive: 20 µM [inhibitor, single point]
37 | CCn1cc(C(=O)NCCc2ccc(Cl)cc2)c(=O)c2cc(S(=O)(=O)N3CCc4ccccc4C3)ccc21 | inconclusive: 5.01 µM [inhibitor, single point]
38 | Nc1nc(Cl)cc(N2CCC(c3cc(-c4ccc(Cl)cc4)n[nH]3)CC2)n1 | active: 11.2 µM
39 | CN(C)CC/C=C1/c2cc(F)ccc2Sc2ccc(Cl)cc21 | inconclusive: 35.5 µM [inhibitor, single point]
40 | Cc1noc(/C=C/N(C)C)c1S(=O)(=O)N1CCN(c2ccccc2)CC1 | inconclusive: 35.5 µM [inhibitor, single point]
41 | COc1ccc(CC(=O)Oc2ccc(Br)cc2F)cc1S(=O)(=O)N1CCOCC1 | inconclusive: 1.41 µM [inhibitor, partial curve, poor fit]
42 | Cc1c(C(=O)c2ccccc2)c2ccccn2c1CCC#N | inactive
43 | O=C(NCC1CC1)Nc1ccccc1F | inactive
44 | CCCCn1c(=O)n(CC(=O)Nc2ccc(C)c(Cl)c2)c(=O)c2c1ncn2Cc1ccco1 | inconclusive: 35.5 µM [inhibitor, single point]
45 | Cc1ccc(CNC(=O)C2CCN(C(=O)c3ccc(-n4ccc5ccccc54)s3)CC2)cc1 | inconclusive: 3.98 µM [inhibitor, full curve]
46 | O=C(CCS(=O)(=O)c1ccc(Br)cc1)N1CCN(c2ccccc2)CC1 | inconclusive: 35.5 µM [inhibitor, single point]

Row | SMILES | Potency
47 | CCOC(=O)CC(NC(=O)CCc1c(C)nc2c(-c3ccccc3)c(C)nn2c1C)c1ccc(C)cc1 (centres undefined) | active: 10 µM
48 | C[C@@H](NC(=O)c1nc[nH]c1C(=O)N[C@@H](Cc1ccccc1)C(=O)OCc1ccccc1)c1ccccc1 | inconclusive: 1.12 µM [inhibitor, partial curve]
49 | COc1ccc(-c2csc(NC(=O)c3ccccc3NS(=O)(=O)c3ccc(F)c(F)c3)n2)cc1 | active: 1.78 µM
50 | CCOC(=O)c1cc(NC(=O)N2CCOCC2)c(C)nc1C | inconclusive: 3.98 µM [inhibitor, single point]
51 | Cc1ccc(-n2nnc(-c3nsc(NC(=O)c4ccccc4C)n3)c2C)cc1Cl | inconclusive: 1.26 µM [inhibitor, partial curve, poor fit]
52 | CCOc1ccc(Nc2c(S(=O)(=O)c3ccc(Cl)cc3)cnc3ccc(OC)cc23)cc1 | inactive
53 | O=C(NC1CCCCCC1)c1ccc(-n2cnnc2)cc1 | inactive
54 | O=C1CCC[C@@H]2Cc3nc4ccc(Cl)cc4cc3[C@@H]3CCN1[C@H]23 | inconclusive: 20 µM [inhibitor, single point] and inconclusive: 3.16 µM [inhibitor, partial curve, poor fit]
55 | COc1cccc(-c2cnc3c(NC(C)=O)cc(-c4cc(OC)c(OC)c(OC)c4)cn23)c1 | inactive
56 | O=c1c(N2CCN(c3cccc(C(F)(F)F)c3)CC2)csc2ccccc12 | inconclusive: 20 µM [inhibitor, single point]
57 | O=C(c1ccccc1-c1nc(-c2ccc(F)cc2)no1)N1CCCC1 | inactive
58 | Nc1nnc(SCC(=O)OCC(=O)c2ccccc2)s1 | inactive
59 | CCOc1ccccc1NC(=O)CCSc1nc2n[nH]c(C)c2c(=N)n1-c1ccccc1Cl | inactive
60 | NC(=O)c1c(NC(=O)C2CCCO2)sc2c1CCC2 (centres undefined) | inactive
61 | COc1ccccc1NC(=O)C(C)OC(=O)CCNS(=O)(=O)c1ccc(C)c(C)c1 (centres undefined) | inconclusive: 5.62 µM [inhibitor, single point]
62 | COC(=O)[C@]1(Cc2ccccc2)N[C@H](CN(C)C(=O)c2ccc(C)cc2)[C@@H]2C(=O)N(C)C(=O)[C@@H]21 | inactive
63 | O=C(Nc1cccc(Cl)c1)N1CCN2C(=O)c3ccccc3C12c1ccccc1 (centres undefined) | inconclusive: 15.8 µM [inhibitor, single point]
64 | CCC1(CC)C(=O)NN(c2ccccc2)C1=O | inconclusive: 0.631 µM [inhibitor, partial curve, poor fit]
65 | O=c1c(-c2ccccc2)coc2c(CN3CCCCC3)c(O)ccc12 | inactive
66 | CC(=O)c1cccc(-c2ccnc3c2CC(C(=O)Nc2cccc(OC(F)(F)F)c2)O3)c1 (centres undefined) | inconclusive: 17.8 µM [inhibitor, single point]
67 | COc1cccc(CN2CCN(Cc3ccc(O)c(OC)c3)CC2CCO)c1 (centres undefined) | inconclusive: 0.708 µM [inhibitor, full curve, poor fit]
68 | O=C(Nc1ccc(OCC(F)(F)C(F)F)c(C(F)(F)F)c1)c1ccccc1 | inactive
69 | O=C(N/N=C/c1ccc(O)c(O)c1)c1ccc(CSc2cccc3cccnc23)cc1 | inconclusive: 35.5 µM [inhibitor, single point]
